PubChem BioAssay AID1508621 (National Center for Advancing Translational Sciences (NCATS), 2021)
Inconclusive means that the source gave no clear call. Such entries were picked first, then a sample of the others. Potencies of inconclusive entries are doubtful fits and often do not repeat. Active and inactive are the calls of the source. Calls follow the shape of the dose curve; as a rule, active = well fitted inhibition curve with a large enough effect; inconclusive = small, poorly fitted or top-dose-only effect; inactive = no such curve, though single readings can be large or run the other way.

Experiment: Confirmatory qHTS for Identification of Small Molecule Inhibitors of Huntingtin Promoter Activity; also: nearly all actives have a fitted effect of over 65% in size
Conditions: HEK293 HTT promoter firefly luciferase reporter, 24 h; series mostly up to 57.5 µM
Procedure, shortened: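 HEK293 luciferase reporter cells, 2,500/well, cultured 24 h, then exposed to compounds at up to 57.5 uM final for 24 h at 37C. Firefly luciferase luminescence read; normalized to vehicle (0%) and zero RLU (-100%).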
Potency is read from the fitted curve at half-maximal effect; tags tell the direction and shape of the fitted curve.

| Structure (SMILES) | Potency |
| --- | --- |
| O=C(CCCn1ccc2cc(S(=O)(=O)N3CCCC3)ccc21)NCc1ccc(Cl)cc1 | inconclusive: 9.53 µM [inhibitor, partial curve] |
| Cc1oc(-c2ccc(C(=O)NCc3ccccc3F)cc2)nc1COc1ccccc1 | inconclusive: 10.7 µM [inhibitor, partial curve] |
| CCCCC(CC)CNC(=O)Cc1ccc(-n2c(=O)[nH]c3ccccc3c2=O)cc1 (stereo unspecified) | inconclusive: 19 µM [inhibitor, single point] |
| CC(C)c1ccc(C2=CC(c3cccc(Cl)c3)n3c(nc4ccccc43)N2)cc1 (stereo unspecified) | inactive |
| CCc1ccc(CN(Cc2ccco2)C(=O)COc2ccccc2Cl)cc1 | inconclusive: 26.9 µM [inhibitor, single point] |
| COc1ccc(NC(=O)Cn2c(SCc3ccc(C)cc3)nc3cccnc32)cc1OC | inactive |
| COc1ccccc1CNC(=O)Cn1c(=O)oc2cc(S(=O)(=O)N3CCC(C)CC3)ccc21 | inconclusive: 12 µM [inhibitor, partial curve] |
| Cc1cc(C)cc(OCCn2c(C3CC(=O)N(c4ccccc4Cl)C3)nc3ccccc32)c1 (stereo unspecified) | inconclusive: 26.9 µM [inhibitor, single point] |
| O=S(=O)(Nc1ccc(F)c(C(F)(F)F)c1)c1ccc(N2CCCCS2(=O)=O)cc1 | inconclusive: 12 µM [inhibitor, partial curve] |
| CCOc1ccc(OC(=O)c2c(-c3ccccc3Cl)noc2C)cc1 | inconclusive: 30.1 µM [inhibitor, partial curve, poor fit] |
| CC(=O)N1CCCc2cc(S(=O)(=O)N(C)CC(=O)Nc3ccc(F)cc3Cl)ccc21 | inconclusive: 21.3 µM [inhibitor, single point] |
